Measured values as given in PubChem BioAssay AID686979 (National Center for Advancing Translational Sciences (NCATS), 2013).
In all, about 420,000 compounds went through this assay and about 50,000 (12%) were called active. The shares of active, inactive and inconclusive entries below differ from those in the screen. Calls come from the whole dose curve; as a rule, active = well fitted inhibition curve with a large enough effect; inconclusive = small, poorly fitted or top-dose-only effect; inactive = flat fitted curve, though single readings scatter. Potencies of inconclusive entries are left out as doubtful fits.

Assay: qHTS for Inhibitors of human tyrosyl-DNA phosphodiesterase 1 (TDP1): qHTS in cells in presence of CPT; note: nearly all actives have a fitted effect of over 55% in size
Details: chicken DT40 Tdp1-/-;hTDP1 cells + 20 nM CPT, ATP luminescence, 48 h; activity change, negative = growth inhibition: at 46.2 µM (top of the series) unless noted
Summary of the method: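 Chicken DT40 Tdp1-/- cells stably complemented with human TDP1 were seeded at 400 cells/well in medium containing 20 nM camptothecin, exposed to pin-transferred compounds, and grown at 37 °C for at least 48 hr. Viability was read as ATP luminescence.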
% is set by controls: 0 for no effect and ±100 for the full control effect; potency is the fitted concentration of half-maximal effect; tags give direction and shape of the fitted curve.

Compound	Potency	activity change, negative = growth inhibition
CN(C)c1ccc(C(CNS(=O)(=O)c2cc(F)ccc2F)N2CCOCC2)cc1 (centres undefined)	inactive	
CCOC(=O)CCC(=O)Nc1ccc(S(=O)(=O)N2CCC(C)CC2)cc1	inactive	
Cc1oc2c(C)c3oc(=O)c4c(c3cc2c1C)CCCC4	inconclusive [inhibitor, full curve, poor fit]	
COCc1cc(C)nc2sc(C(=O)NN)c(-n3cccc3)c12	inactive	
CCN(CC)C(=O)c1sc(NC(=O)C2c3ccccc3Oc3ccccc32)c(C(=O)OC(C)C)c1C	inconclusive [inhibitor, full curve]	
CCCCNC(=O)C1C(c2ccccc2)=Nc2ccccc2N1C(=O)c1ccc(C)cc1 (centres undefined)	active: 13 µM	
O=C1c2ccsc2SCCN1Cc1ccc(Cl)cc1Cl	inconclusive [inhibitor, single point]	
O=C(CCc1ccccc1)NCC(c1ccco1)N1CCc2ccccc21 (centres undefined)	active: 4.61 µM	
COC(=O)c1c(C(=O)OC)c(-c2ccc(Cl)c(Cl)c2)n2c1CCC2	active: 20.6 µM	
C#CCOc1c(Cl)cc(/C=C2/C(=O)ON=C2C)cc1OCC	inconclusive [inhibitor, single point]	
O=C(NC(=S)Nc1cccnc1Cl)c1ccco1	inactive	
Cc1ccnc(N2CCC(C(=O)Nc3cccc(C(F)(F)F)c3)CC2)n1	inactive	
CC(C)OCCCNC(=O)NC(=O)c1ccc(Cl)cc1	inconclusive [inhibitor, partial curve]	
O=C(NCc1cccc(C(F)(F)F)c1)C1C(=O)Nc2ccccc2C(=O)N1C1CCCC1 (centres undefined)	inconclusive [inhibitor, single point]	
Oc1c(Cl)cc(Cl)cc1/C=N/NC(=S)NC1CC2C=CC1C2 (centres undefined)	inconclusive [inhibitor, single point]	
COc1ccc(NS(=O)(=O)c2ccc3[nH]c4c(c3c2)CCCC4)c(OC)c1	active: 20.6 µM	
O=C(Nc1ccc(Br)cc1)c1cccc(S(=O)(=O)Nc2ccccn2)c1	inactive	
CCOc1ccc(-n2ccnc2)nn1	inactive	
O=C(Nc1cccc(F)c1)Nc1ccc2c(c1)OCO2	inconclusive [inhibitor, single point]	
CCc1nc2c(OCCOc3ccc(F)cc3)cccn2c1N(C=O)Cc1ccc(OC)cc1	inconclusive [inhibitor, single point]	
Cc1csc(SCC(=O)c2cc(C)n(Cc3cccs3)c2C)n1	active: 18.4 µM	
Cc1cc(NC(=O)C(C)SCC(=O)Nc2ccccc2N2CCCCC2)no1 (centres undefined)	inconclusive [inhibitor, single point]	
COc1cccc(NC(=O)Cn2c(=O)n(-c3cccc(OC)c3)c(=O)c3c4c(sc32)CCCC4)c1	active: 13 µM	
O=C(Cn1cc([N+](=O)[O-])ccc1=O)N1CCc2ccccc2C1	inactive	
O=C(NCCNC(=O)c1cccnc1)c1ccc(Br)cc1	inactive	

Compound	Potency	activity change, negative = growth inhibition
Cc1ccc(CN(C(=O)c2ccccc2Br)C2CCS(=O)(=O)C2)o1 (centres undefined)	inconclusive [inhibitor, single point]	
O=C(NCc1ccccc1Cl)c1ccc2nc([C@H]3C[C@H](O)[C@@H](CO)O3)[nH]c2c1	inactive	
COc1ccc(N2CCN(C(=O)CN(Cc3ccc(Cl)cc3)S(C)(=O)=O)CC2)cc1	inconclusive [inhibitor, partial curve]	
CCNC(=S)N1CCN(c2nc(-c3ccc(F)cc3)cs2)CC1	inconclusive [inhibitor, single point]	
CCCCNc1nc2c(c(=O)n(C)c(=O)n2C)n1Cc1cccc(OC)c1	active: 2.91 µM	
O=C(COc1coc(CN2CCN(c3ccccc3F)CC2)cc1=O)Nc1ccccc1	inactive	
Cc1ccc(CNC(=O)c2ccc(CNS(=O)(=O)c3ccc4c(c3)C(C)(C)C(=O)N4C)cc2)o1	inactive	
O=C(Nc1ccccc1)c1cccc(N2C(=O)C3C4C=CC(C5CC45)C3C2=O)c1 (centres undefined)	inactive	
CCn1c(SCC(=O)NC2CC2)nnc1-c1ccccn1	inactive	
Cc1ccccc1Nc1nc(N)nc(CSc2nc3ccccc3s2)n1	inconclusive [inhibitor, single point]	
C[C@@H]1CN([C@H](C)CO)C(=O)CCCn2cc(nn2)CO[C@H]1CN(C)S(=O)(=O)c1ccc(Oc2ccccc2)nc1	inactive	
O=C(CC1C(=O)NCCN1C(=O)Nc1ccc(F)cc1F)Nc1cc(Cl)ccc1Cl (centres undefined)	inactive	
COc1ccc(OCc2nc3ccccc3n2C(C)C)cc1	inactive	
O=C(NCc1ccc(Cl)cc1)C(=O)Nc1cccc(Br)c1	inactive	
Cc1ccc(C2(C)CC(C)(C)N(C(=O)CSc3nnc(C)s3)c3ccccc32)cc1 (centres undefined)	active: 20.6 µM	
CCN(CC)S(=O)(=O)c1ccc(NC(=O)c2ccc(Cl)nc2)cc1	inconclusive [inhibitor, single point]	
C=CC(C)(C)c1c(O)c(CC=C(C)C)c(O)c2c(=O)c3ccc(O)c(O)c3oc12	active: 16.4 µM	
O=C(CN1C(=O)c2ccccc2C1=O)Nc1cccc(S(=O)(=O)Nc2ccccc2Cl)c1	inactive	
CCCCNC(=O)C(=O)Nc1ccc2c(c1)N(S(=O)(=O)c1cccs1)CCC2	active: 2.59 µM	
O=c1c2ccccc2nc(/C=C/c2cc(Br)ccc2O)n1CCCO	inconclusive [inhibitor, single point]	
O=C(NCc1cccs1)[C@@H]1CCCN1S(=O)(=O)c1ccccc1F	inactive	
Cn1c(-c2ccc(N)cc2)nc2ccccc21	inactive	
CCOc1ccc(N(CC(=O)NC2CC3CCC2C3)S(=O)(=O)c2ccc(C)cc2)cc1 (centres undefined)	active: 16.4 µM	
Nc1c(NCCc2ccccc2)c2ccccc2oc1=O	inconclusive [inhibitor, single point]	
COc1cc(C(=O)ON=C2C3CC4CC(C3)CC2C4)cc(OC)c1OC	inconclusive [inhibitor, single point]	

Compound	Potency	activity change, negative = growth inhibition
COCCn1c(SCCCc2ccccc2)nc2c1c(=O)[nH]c(=O)n2C	inconclusive [inhibitor, single point]	
O=C(NC1CCCC1)c1ccc(Cl)c(S(=O)(=O)N2CCCCC2)c1		inconclusive: -31.6% [inhibitor]
Cc1cc(C)cc(NC(=O)COc2coc(CN3CCN(c4ccccc4)CC3)cc2=O)c1	inconclusive [inhibitor, single point]	
OC[C@@H]1CN(Cc2ccc(Cl)cc2)C[C@H](n2cnc3c(Nc4ccccc4)ncnc32)O1	inconclusive [inhibitor, single point]	
Cc1cc(Br)c(Cl)cc1NC(=O)CN1C(=O)C2C3CC(c4ccccc4)C(C3)C2C1=O (centres undefined)	inconclusive [inhibitor, single point]	
CN(CCc1ccccn1)C(=S)NC(=O)c1ccco1	inconclusive [inhibitor, single point]	
COc1ccccc1-n1ccnc1SCC(=O)NC(C)(C)C	inactive	
COc1cc(OC)nc(C(NC(=O)C2CCN(Cc3ccc(Oc4ccccc4)cc3)CC2)c2ccc(F)cc2)n1 (centres undefined)	active: 25.9 µM	
Cc1cc(Nc2nnnn2-c2ccccc2)n(-c2ccc(Cl)cc2)n1	inconclusive [inhibitor, partial curve, poor fit]	
Oc1ccc(N=Nc2ccccc2)o1	active: 5.8 µM	
COc1ccc(OC)c2sc(NNC(=O)C3COc4ccccc4O3)nc12 (centres undefined)	active: 14.6 µM	
CCOC(=O)c1ccc(NC(=O)c2c(C)oc3nc(C)nc(N4CCCC4)c23)cc1	inconclusive [inhibitor, single point]	
CC(=O)Nc1c(C(=O)Nc2cccc(C)c2)nnn1-c1ccc(C)cc1	inconclusive [inhibitor, single point]	
CCC1CCCCN1S(=O)(=O)c1ccc(N2CCCCS2(=O)=O)cc1 (centres undefined)	inconclusive [inhibitor, single point]	
COc1ccc(N(C)S(=O)(=O)c2cccc(C(=O)OCC(=O)N3CC(C)CC(C)C3)c2)cc1 (centres undefined)	inconclusive [inhibitor, single point]	
O=C(Nc1ccc2c(c1)CCCN2C(=O)c1ccccc1)c1ccccc1	inconclusive [inhibitor, single point]	
Cn1ncc2c(=S)[nH]c(=S)[nH]c21	inconclusive [inhibitor, single point]	
COc1ccc(-c2oc3ccc(-c4cc(OC)c(OC)c(OC)c4)cc3c2-c2ccc(OC)cc2)cc1	inconclusive [inhibitor, partial curve, poor fit]	
O=C1CCC(C(=O)N2CCCCCC2)CN1Cc1cccc(C(F)(F)F)c1 (centres undefined)	inactive	
O=C(NCc1ccco1)C(c1cccs1)N(C(=O)Cc1cccs1)c1ccccc1 (centres undefined)	inconclusive [inhibitor, single point]	
COc1ccccc1-c1nc(C#N)c(N2CCN(c3ccccc3)CC2)o1	inconclusive [inhibitor, single point]	
Cc1cc(N2CCN(C)CC2)nc2ccc(NC(=O)Nc3ccccc3)cc12	inconclusive [inhibitor, single point]	
O=C(CSc1nc(-c2ccccc2)nc2c1CCCC2)N1CCOCC1	inconclusive [inhibitor, single point]	
COc1ccc(Oc2cnn(-c3ccccc3)c(=O)c2Br)cc1	inconclusive [inhibitor, single point]	
